Residue numbers refer to the chain shown, from its start. Marks after values point to notes of the source that are not given here.
Key:
[1] = Affinity by surface plasmon resonance (Biacore), analyte apixaban; type: binding; conditions: Table 7; immobilized Fabs, SPR (Biacore)
[2] = Affinity by surface plasmon resonance (Biacore), analyte SATI; type: binding; conditions: Table 7; immobilized Fabs, SPR (Biacore)
[3] = system: rivaroxaban induced FXa inhibition; test: Functional neutralization of rivaroxaban in a biochemical Factor Xa activity assay; conditions: Table 6; biochemical FXa-assay, 0.05 nM FXa, 0.6 nM rivaroxaban; read-out: EC50
Method: Serial dilutions of test compounds in assay buffer (50 mM HEPES pH 7.8, 250 mM NaCl, 6 mM CaCl2, 0.01% Brij35, 1 mM glutathione, 4 mM EDTA, 0.05% bovine serum albumin) were performed (typical concentrations ranging from 5 μM to 0.0007 μM).
20 μL of the diluted test compounds were placed in 384 well microtiter plates (Greiner, Frickenhausen, Germany), followed by the addition of 10 μL of a 1:400 dilution (250 μM) of the FXa substrate Pefafluor Xa (100 mM in DMSO, Loxo, Dossenheim, Germany) in assay buffer. […] Simultaneously, control reactions without rivaroxaban were started.
During incubation at 32° C., reaction progress curves were monitored using a fluorescence microtiter plate reader (e.g Tecan Ultra Evolution, Tecan Group Ltd., Mannedorf, Switzerland; excitation 360 nm, emission 465 nm).
The dilution of FXa was chosen that in the control reactions the reaction kinetics was linear, and less than 50% of the substrate was consumed (typical final FXa concentration in the assay: 0.05 nM). […] Results are depicted in FIG. 1.

[4] = Affinity by surface plasmon resonance (Biacore), immobilized Fab, analyte rivaroxaban; type: binding; conditions: immobilized Fabs, SPR (Biacore)
From the text: “Binding affinity” refers to the strength of the sum total of noncovalent interactions between a single binding site of a molecule and its binding partner. Unless indicated otherwise, as used herein, “binding affinity” refers to intrinsic binding affinity which reflects a 1:1 interaction between members of a binding pair (e.g. an antibody and an antigen). The dissociation constant “KD” is commonly used to describe the affinity between a molecule (such as an antibody) and its binding partner (such as an antigen) i.e. how tightly a ligand binds to a particular protein. Ligand-protein affinities are influenced by non-covalent intermolecular interactions between the two molecules Affinity can be measured by common methods known in the art, including those described herein. In one embodiment, the “KD” or “KD value” according to this invention is measured by using surface plasmon resonance assays using a Biacore T100 instrument (GE Healthcare Biacore, Inc.) according to Example 5. The dissociation equilibrium constant (KD) was calculated based on the ratio of association (kon) and dissociation rated (koff) constants, obtained by fitting sensograms with a first order 1:1 binding model using Biacore Evaluation Software. Other suitable devices are BIACORE(R)-2000, a BIACORE (R)-3000 (BIAcore, Inc., Piscataway, N.J.), or ProteOn XPR36 instrument (Bio-Rad Laboratories, Inc.).
Binding affinities of Fab-fragments were determined by surface plasmon resonance analysis on a Biacore T100 instrument (GE Healthcare Biacore, Inc.). Fab fragments were diluted to a final concentration of 10 μg/ml in 10 mM sodium acetate, pH 4.5, and immobilized on a CM5 chip (GE Healthcare Biacore, Inc.) at levels of 3000-5000RU by amine-coupling chemistry for flow cells 2, 3 and 4, respectively. Flow cell 1 was used as a reference. […] Sensograms were generated after in-line reference cell correction followed by buffer sample subtraction. The dissociation equilibrium constant (KD) was calculated based on the ratio of association and dissociation rated constants, obtained by fitting sensograms with a first order 1:1 binding model using BiaEvaluation Software.

[5] = Affinity by surface plasmon resonance (Biacore), analyte compound from Example 1G; type: binding; conditions: Table 7; immobilized Fabs, SPR (Biacore)
[6] = Affinity by surface plasmon resonance (Biacore), analyte edoxaban; type: binding; conditions: Table 7; immobilized Fabs, SPR (Biacore)
[7] = Affinity by surface plasmon resonance (Biacore), analyte razaxaban; type: binding; conditions: Table 7; immobilized Fabs, SPR (Biacore)
[8] = ELISA-based activity assay of antibody variants without a competition step; type: binding; set-up: key: ++: Variants with an average ratio above wt plus 2×SD (standard deviation of the ratio) were considered as improved; −: variants with a ratio below wt minus 2×SD were considered as reduced in their binding affinity; +/−: All variants with a performance in between both thresholds; −−: Variants with average fluorescence counts below the negative control (non-expressing cells) plus 3×SD were considered as non-binding
Method: (§1) To determine the activity of the mutated antibody variants on compound from Example 1K an equilibrium or dissociation limited ELISA assay format was used. Briefly, MTP plates (Nunc Maxisorp black, 460518) were coated with 4 μg/ml streptavidin (Calbiochem, 189730) diluted in coating buffer (Candor Bioscience GmbH, 121500) and incubated over night at 4° C. After washing with PBST, plates were blocked with 100% Smart Block (Candor Bioscience GmbH, 113500) in PBST for 1 h at room temperature and the washing step was repeated. Plates were incubated with compound from Example 1K at varying concentrations (0.3-200 nM) for 1 h at 37° C., washed with PBST and antibody fragments were immobilized by adding 25 μl of the crude bacterial cultures for 1 h at room temperature. After washing with PBST a competition step or the immediate detection was performed. […] For the detection of the residually bound Fabs a HRP-coupled anti-lambda antibody (Sigma, A5175) diluted in 10% Smart Block in PBST was added for 1 h at room temperature. After washing 10 μM Amplex Red (Invitrogen, A12222) were added and incubated for 10 to 30 min at room temperature followed by measurement of the fluorescence signal.
(§2) Provided in Table 9 are several examples of single and/or double amino acid substitutions introduced into the heavy and/or the light chain of M14-G07 (wt). Performance of the variants was analyzed in quadruples in the ELISA without a competition step and the FXa deinhibition assay (FXa DIA). In the ELISA, averages were calculated and normalized to the respective average expression level. Overall performance of variants was evaluated by comparing the variant to wt ratio from 2-3 independent experiments. […] Variants with average fluorescence counts below the negative control (non-expressing cells) plus 3×SD were considered as non-binding and marked with “−−” with none of the variants fulfilling this criteria. In the FXa deinhibition assay averages were calculated and overall performance of variants was evaluated by comparing the variant to wt ratio from 2-3 independent experiments. […]

[9] = as above; type: binding; set-up: key: +++: Variants with an average ratio above reference plus 2×SD; +/−: variants with a ratio below reference minus 2×SD; ++: All variants with a performance in between both thresholds; −: Variants with a ratio below 0.5; conditions: Table 10, multiple substitutions within M14-G07, variant to reference ratio (reference 2-fold improved over wt)
Method: as §1, §2

[10] = Table 6, analyte rivaroxaban, read-out: KD
[11] = read-out: KD Rivaroxaban, Table 7
[12] = Table 10, multiple substitutions within M14-G07, variant to reference ratio (reference 2-fold improved over wt)

B1: M14-G07: antibody, Vh SEQ ID NO: 207, Vl SEQ ID NO: 208 (antibody, listed as Homo Sapiens, V domains shown)
VH: EVQLLESGGGLVQPGGSLRLSCAASGFTFGDYAMSWVRQAPGKGLEWVSGISGSGGSTYYADSVKGRFTISRDNSKNTLYLQMNSLRAEDTAVYYCAREGETSFGLDVWGQGTLVTVTS
VL: QSVLTQPPSASGTPGQRVTISCSGSSSNIGSNYVYWYQQLPGTAPKLLIYDNNDRPSGVPDRFSGSKSGTSASLAISGLRSEDEADYYCVAWDDSLNGHWVFGGGTKLTVL
[1]
  KD Apixaban: n.b.
[2]
  KD SATI: n.b.
[3]
  EC50: < 500 nM
[4]; [10]
  Kd: < 50 nM
[4]; [11]
  Kd: < 50 nM
[5]
  Kd: > 1000 nM
[6]
  KD Edoxaban: n.b.
[7]
  KD Razaxaban: n.b.

B2: M15-B07: antibody, Vh SEQ ID NO: 209, Vl SEQ ID NO: 210 (antibody, listed as Homo Sapiens, V domains shown)
VH: EVQLLESGGGLVQPGGSLRLSCAASGFTFSSYAMSWVRQAPGKGLEWVSGISGSGGGTYYADSVKGRFTISRDNSKNTLYLQMNSLRAEDTAVYYCAREGGTYYYGSGSYVLDYWGQGTLVTVTS
VL: QSVLTQPPSASGTPGQRVTISCSGSSSNIGSNYVYWYQQLPGTAPKLLIYRNNHRPSGVPDRFSGSKSGTSASLAISGLRSEDEADYYCAAWDDILSGWVFGGGTKLTVL
[3]
  EC50: < 1000 nM
[4]; [10]
  Kd: < 500 nM

B3: M18-G08: antibody, Vh SEQ ID NO: 217, Vl SEQ ID NO: 218 (antibody, listed as Homo Sapiens, V domains shown)
VH: EVQLLESGGGLVQPGGSLRLSCAASGFTFSNAWMSWVRQAPGKGLEWVSSISSSSGYIYYADSLKGRFTISRDNSKNTLYLQMNSLRAEDTAVYYCARVWRNHLDYWGQGTLVTVTS
VL: B2 VL with N28D, Y33T, Y35N, R51D, H54Q, A90Q, A91S, W92Y, D94S, I95S
[1]
  KD Apixaban: n.b.
[2]
  Kd: < 50 nM
[3]
  EC50: < 500 nM
[4]; [10]
  Kd: < 50 nM
[4]; [11]
  Kd: < 50 nM
[5]
  Kd: < 50 nM
[6]
  KD Edoxaban: n.b.
[7]
  KD Razaxaban: n.b.

B4: HC_D31S (antibody, V domains shown)
VH: EVQLLESGGGLVQPGGSLRLSCAASGFTFSSYQMTWIRQTPGKGLEWVSGVSWNGARTHYADSVKGRFTISRDNSKNTLYLQMNSLRAEDTAVYYCAKGDYLVYSAYYFDSWGQGTLVTVTS
VL: QSVLTQPPSASGTPGQRVTISCSGSSSNVGSNPVNWYQQLPGTAPKLLIYRNNQRPSGVPDRFSGSKSGTSASLAISGLRSEDEADYYCAAWDDRLNGWVFGGGTKLTVLGQ
[8]; Table 9, single and double substitutions within M14-G07, variant to wt ratio, normalized to expression level
  ELISA: +/−

B5: M14-G07-35: antibody, Vh SEQ ID NO: 195, Vl SEQ ID NO: 196 (antibody, listed as Homo Sapiens, V domains shown)
VH: B1 VH with G30S, D31S, G105Y, T118S
VL: B1 VL with D54Q, N97S
[8]; [12]
  ELISA: ++*

B6: M14-G07-36: antibody, Vh SEQ ID NO: 197, Vl SEQ ID NO: 198 (antibody, listed as Homo Sapiens, V domains shown)
VH: B1 VH with G30S, D31S, G105Y, T118S
VL: B1 VL with N32Y, D54Q, N97S
[9]
  ELISA: +++

B7: M14-G07-38: antibody, Vh SEQ ID NO: 201, Vl SEQ ID NO: 202 (antibody, listed as Homo Sapiens, V domains shown)
VH: B1 VH
VL: B1 VL with D54Q, N97S
[9]
  ELISA: +/−

B8: M14-G07-39: antibody, Vh SEQ ID NO: 203, Vl SEQ ID NO: 204 (antibody, listed as Homo Sapiens, V domains shown)
VH: B1 VH with G30S, D31S, G105Y, T118S
VL: B1 VL
[8]; [12]
  ELISA: ++

B9: M14-G07-40: antibody, Vh SEQ ID NO: 205, Vl SEQ ID NO: 206 (antibody, listed as Homo Sapiens, V domains shown)
VH: B1 VH with D31S, G105Y, T118S
VL: B1 VL with D54Q, N97S
[9]
  ELISA: +/−

Source: patent US20140050743A1, “BINDING PROTEINS TO INHIBITORS OF COAGULATION FACTORS” (BAYER INTELLECTUAL PROPERTY GMBH, priority 2011, published 2014)
